Data reported in PubChem BioAssay AID900 (National Center for Advancing Translational Sciences (NCATS), 2007).
Screen size: about 75,000 compounds; about 20 (0.03%) were called active. Another 1% or so got no clear call; they are omitted. Calls follow the shape of the dose curve; as a rule, active = well fitted inhibition curve with a large enough effect; inconclusive = small, poorly fitted or top-dose-only effect; inactive = flat fitted curve, though single readings scatter. The entries are a selection whose mix differs from that of the whole data set.

Target: Caspase-1 (Homo sapiens) (UniProt P29466)
Assay: qHTS Assay for Allosteric/Competitive Inhibitors of Caspase-1;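 as to activity change, negative = inhibition: plate controls were vehicle for no effect and no substrate for full effect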
Conditions: Caspase-1 enzyme, Ac-WEHD-AFC fluorogenic rate; series mostly up to 57.5 µM; activity change, negative = inhibition: at the top concentration
Description: NIH Molecular Libraries Screening Centers Network [MLSCN]
NIH Chemical Genomics Center [NCGC]
PI Name: Dr. James Wells,
Dr. Enrique Perez-Paya, Dr.Janice Williams, Dr. Dennis Wolan, a person
The caspases (Cysteine Aspartyl Protease) comprise a related family of 14 dimeric proteases that are critical mediators of apoptosis (programmed cell death) and inflammation. The caspases represent an important class of drug targets for stroke, ischemia, cancer and inflammatory diseases. […] One goal of this project was to identify compounds that act as allosteric inhibitors via stabilizing the procaspase form of the enzyme. Previous work in Well's laboratory has shown that such allosteric inhibitors can be identified and these act by binding at the dimer interface of enzyme (Hardy, Lam et al., 2004).
The biochemical assay was configured using purified caspase 1 at a high enzyme concentration to promote formation of the homodimers and thus facilitate the identification of allosteric inhibitors. The overall goal was to identify reversible inhibitors with better drug-like properties than the currently available set of aspartyl-containing peptidomimetics that covalently bind the active site. Caspase 1 was assayed using the profluorescent substrate Ac-WEHD-AFC. After initiation of the assay with substrate the plates were rapidly read using an automated robotic system (Kalypsys, Inc.) to maintain consistent timing. A kinetic mode of detection was used where the initial rate was collected (estimated final product formation was ~10%). Compounds were screened as a concentration-titration series that ranged from 57 uM to 0.7 nM. Below is the protocol used for caspase 1.
NCGC Assay Protocol Summary:
Caspase 1 was prepared in buffer (50 mM HEPES pH 7.5, 50 mM KCl, 200 mM NaCl, 10 mM DTT, 0.1% CHAPS) at a concentration of 66.6 nM and 3 uL was dispensed to all wells using black solid Kalypsys 1536-well plates. 20 nL of DMSO containing compounds was added using a pin-tool (Kalypsys Inc.) to columns 5-48. Then 20 nL of DMSO solution from a control plate was added to columns 1-4. Controls were: Column 1, 16 point titration with each concentration in duplicate (1:1 dilutions in DMSO; final starting concentration was 57 uM) of the caspase 1 inhibitor Ac-WEHD-CHO (Alexis Biochemicals); Column 2, a 16 point titration with each concentration in duplicate of the free AFC fluorophore prepared in DMSO (Alexis Biochemicals), final starting was 40 uM; Column 3 neutral (DMSO only) control; Column 4: DMSO alone, to serve as a negative control (no substrate was added). Then 1 uL of 20 uM the substrate Ac-WEHD-AFC (Alexis Biochemicals) prepared in the same buffer was dispensed to all wells except columns 2 and 4 and the plates were immediately transferred (< 1 min) to the Viewlux. The plates were then exposed using 405 nm excitation/520 nm emission filters for 4 sec and read at 20 sec intervals for 3 min. Final enzyme concentration was 50 nM and the final substrate concentration was 5 uM.
Concentration-response curves were fitted to the data calculated from slope of the linear regression of fluorescent intensity versus time (the rate). The concentration-effect curves were then classified based on curve quality (r2), response magnitude and degree of measured activity. […] Inconclusive compounds had appreciable concentration-dependent effects on both the measured rate and the interpolated basal fluorescence intensity at the start of the reaction but where the basal fluorescent intensity was marginal (e.g. < 10-fold). Inconclusive compounds also encompass highly fluorescent compounds (>100-fold increases in fluorescent intensities values relative to controls) where artificial concentration-dependent decreases in the rate occurred at high compound concentrations due to fluorescent interferences.
Keywords: Caspase 1, proteases, profluorescent, MLSMR, MLSCN, NIH Roadmap, qHTS, NCGC
Potency is read from the fitted curve at half-maximal effect.

Compound	Potency	activity change, negative = inhibition
CN(C)CC/C=C1\c2ccccc2Sc2ccc(Cl)cc21	inactive	
COc1cc(CNC(=O)CCCC/C=C\C(C)C)ccc1O	inactive	
CCCN(CCC)[C@@H]1CCc2ccc(O)cc2C1	inactive	
CC(CO)NC(=O)C1C=C2c3cccc4[nH]cc(c34)C[C@H]2N(C)C1 (stereo partly specified)		inactive: 0.235%
COc1cc2c(c(OC)c1OC)-c1ccc(OC)c(=O)cc1C(NC(C)=O)CC2 (stereo unspecified)		inactive: -9.62%
COc1cc2c(c(OC)c1OC)-c1ccc(OC)c(=O)cc1[C@H](NC(C)=O)CC2	inactive	
COc1cc(CNC(=O)CCCC/C=C/C(C)C)ccc1O		inactive: -7.33%
CCn1nc(-c2cccs2)nc2c(=O)n(C)c(=O)nc1-2	active: 794 nM	
CCCCC/C=C\C/C=C\C/C=C\C/C=C\CCCC(=O)O		inactive: -2.13%
CC[C@@H]1CN2CCc3cc(OC)c(OC)cc3[C@H]2C[C@@H]1C[C@H]1NCCc2cc(OC)c(OC)cc21		inactive: -11.3% [at 25.7 µM]
CC[C@@H]1CN2CCc3cc(OC)c(OC)cc3[C@H]2C[C@@H]1C[C@@H]1NCCc2cc(OC)c(OC)cc21		inactive: -3.07%
